Biological target: c-MYC HLHZip (residues 368-437) (human, UniProt P01106-1 fragment)
Assay: co-expression and co-purification (Ni affinity); MYC and MAX regions coexpressed in E. coli from a polycistronic mRNA; the dimer purified on a HisTRAP column at 25 °C
Conditions: partners not purified

B1: MAX HLHZip ([…]) (domain or fragment)
chain: not shown
binding result: binds
